# Some of the results follow.
# B1: chrX:35985205:35985206:-_ENSMUSG00000048970_ENSMUST00000058265|mus_mus|motif|central (ssRNA)
# RNA: GGGAGUUCUACAGUCCGACGAUCUUUGUUAGGGGCUUGCAGAUGGUGAUGCUCAUGGUGGUGCAUUCUGUUUCCAAUCCGGAUGUGGCCUAGCAUAGUGAUCAAGGCACAGAAGAUGCUUCCAAGCAUCACACCCUUCAAAAACAACAGAGGAUUGAGCAUCA
# B2: chr6:114281168:114281169:-_ENSG00000196591_ENST00000368632|hu_hu|hu_hu_hu_mus_True|18_98 (ssRNA)
# RNA: GGGAGUUCUACAGUCCGACGAUCUUCCAUUUUUCGGUAUAAGCCAUAAUUUAGCAGCAAGUUAUGAGUCAUCCGGAUUCUAUGAGGCUUCAUGGGAUGACCCUGGCCAUAAUAAUAAUUUCCAAUAUCACCAUCAUAGUAGUACAACAGAGGAUUGAGCAUCA
# B3: chr4:17845017:17845018:+_ENSG00000109805_ENST00000514176|hu_mus|hu_hu_hu_mus_False|8_8 (ssRNA)
# RNA: GGGAGUUCUACAGUCCGACGAUCGCUCUCUUAACUUGUAUCUUCAUUAAGGAACUCUGCAAGGUUAAGUUUACUUUUCUGUAGCGCAGCUGUUUUGGCUCGUCUGGGUAAUCUCAUCUUCAUUUCUAUUCUGGUUCCAUGAUCCAACAGAGGAUUGAGCAUCA
# B4: chr2:71279510:71279511:+_ENSMUSG00000027018_ENSMUST00000028408|mus_hu|FALSE|FALSE (ssRNA)
# RNA: GGGAGUUCUACAGUCCGACGAUCCAUAAACUCUAAACAGUAUUUUAAAAUAUACAAUCUCUCCAAAAGAAAAUAUUCAACUAAAGAUAGAUAACUUUUAGUAUAAGCAAAAUGUCACAAGAUUUUAAAAUUAAAGUCAUCAGACAACAGAGGAUUGAGCAUCA
# B5: 100860264_100860384_2031_CDS_ENSMUSG00000027864_ENSMUST00000102694|mouse|control|control (ssRNA)
# RNA: GGGAGUUCUACAGUCCGACGAUCGCCCGCAUCGGAGACCUGAGUCUGGUACAUUCGGUAUCGGAACUCAUCCUCCUGAACUUUCUCCAACACCACGCCAUCCACCCGAGACGCGUCGGUCCAGUUCUCCAGCUUCACCACGGACAACAGAGGAUUGAGCAUCA
# B6: chr7:130122267:130122268:+_ENSMUSG00000030779_ENSMUST00000098062|mus_mus|motif|central (ssRNA)
# RNA: GGGAGUUCUACAGUCCGACGAUCAUUUAUAUCCAUAUUCAACUGAACUGUCAUCAAAAUACAAUUUAUUUACAGUGGGUGCGGUGGUCAGUGGGUAUUCUAAGUGAGUUACGUCACUGAAACAUUAUAAAGGUAAAAGCAAUUCAACAGAGGAUUGAGCAUCA
# B7: chr7:90019092:90019093:+_ENSMUSG00000057706_ENSMUST00000082237|mus_mus|FALSE|FALSE (ssRNA)
# RNA: GGGAGUUCUACAGUCCGACGAUCGAAACACACAAAACAGUCCACACAUCCCAUAGCACAAUUAUUAAUCAUCUUCAUAAUUACUGUUCAUUUUUCUACUUCAAGAAAAUGGAAAACUUGUGGGGUUUUCUUUUGGAAGCUUCCCAACAGAGGAUUGAGCAUCA
# B8: chr8:24034084:24034085:+_ENSMUSG00000031540_ENSMUST00000044331|mus_hu|FALSE|FALSE (ssRNA)
# RNA: GGGAGUUCUACAGUCCGACGAUCAUUCCCAUCAACCUCAAAGACAGAAAUAUUAUUCUUUCUGUAAAUCUCAUUGGCAGGAGGAUGGAACCAACCACAUUUCUUCAUGUGCUGCUGCAGAAUAGUUCUACUUUUCAUAUAUUUCAACAGAGGAUUGAGCAUCA
# B9: chr3:10015032:10015033:+_ENSMUSG00000027533_ENSMUST00000029046|mus_mus|mus_mus_mus_hu_True|48_58 (ssRNA)
# RNA: GGGAGUUCUACAGUCCGACGAUCGUUUUUACCAUCACAAGUGAUGAUACAAUCUGGCUUGGCCAUUGCGCCCAUUUUCCUAAGAGCCAGUCCUACUCCUAGCUCCUUCAUGUAUUCAUCAAAGCCUUUGCUGUCCACCAGGCGCAACAGAGGAUUGAGCAUCA
# B10: chr7:148679106:148679107:+_ENSMUSG00000025511_ENSMUST00000117634|mus_hu|FALSE|FALSE (ssRNA)
# RNA: GGGAGUUCUACAGUCCGACGAUCACCAGGACCAGUGGGGCCACCUCCAGGAUGCCAAGACCCGGCUCCUCCAGCGCCAACCUGUUUUCCAGGAGGCUGGGGGCCACAGGCUGGCUCCCGUGUGAACACUGCUUUGGAGAAUACCAACAGAGGAUUGAGCAUCA
# B11: chr7:5008886:5008887:+_ENSMUSG00000035228_ENSMUST00000045543|mus_mus|motif|central (ssRNA)
# RNA: GGGAGUUCUACAGUCCGACGAUCCCCUUCAUCAUGGCCCAUCUCCGAACCCAAUGCCAUAAAUGGAGAAACAACCACCCCGGACUUCCAUUCUUGGGGUAGGGGGUCCAUCCUGCAAGCGUUCCCCUGUCCCAGCCGCCCAUUCAACAGAGGAUUGAGCAUCA
# B12: chr4:56736951:56736952:+_ENSG00000090989_ENST00000381295|hu_hu|FALSE|FALSE (ssRNA)
# RNA: GGGAGUUCUACAGUCCGACGAUCGUUGCUUUCAGAGAUCUGAUCCAUUUGUUCUUUUACACUUUGGAGCAUUUCCUCAUAACUGCUCAGUUUCAAUUCAAUCUGAUCUACCUCCUUUAGAGCCUCAUCUAGCAAUUUCAUCAGCAACAGAGGAUUGAGCAUCA
# B13: chr15:83907949:83907950:-_ENSMUSG00000018865_ENSMUST00000082365|mus_mus|FALSE|FALSE (ssRNA)
# RNA: GGGAGUUCUACAGUCCGACGAUCCUGGUAUUAUAGAUAAAAGUCAAACGUGAGGUCACACUUCCCCAUCUUCUGUUUGUACACUAGAUCAAACUUCUCGUUCAUGGAGACGGUGAAGAUGUCCUUCCACAGCCCAACUCUUCCCAACAGAGGAUUGAGCAUCA
# B14: chr12:48362563:48362564:+_ENSG00000134291_ENST00000256686|hu_hu|hu_hu_hu_mus_False|8_98 (ssRNA)
# RNA: GGGAGUUCUACAGUCCGACGAUCUCCGUCAAGCCCUUCAAGCCCCACUUGCGGGGGAAACUGUAAUCACUUUGUAUGGGGAAGGAAAAGAAACGCCAAAAACUUUCCAAAAAGCGGGGGUGGGGUGUCCCAGGCCUGGGAGGUCAACAGAGGAUUGAGCAUCA
# B15: 62445508_62445848_479_CDS_ENSG00000162191_ENST00000301935|human|control|control (ssRNA)
# RNA: GGGAGUUCUACAGUCCGACGAUCGCGCUGCCGUUCCCGUUCCAAUGCCUCCCGUUCCUCUCUUUCUUCACGCUCCCGCUGCUUCUGGGCCACCAGCUCCAACAUCCUCUUAGUUUGUUCCUGUCUUUCCUCUUCACUCAAAGCCAACAGAGGAUUGAGCAUCA
# B16: 5832715_5832835_342_3pUTR_ENSG00000099219_ENST00000339450|human|control|control (ssRNA)
# RNA: GGGAGUUCUACAGUCCGACGAUCGCGGUGUCCAGCGGCCCCGCGUAGCACGAGCUGCUGCAGCGAGAGCUGCACCAGCGUCCGCAGCGCGAUCAGGUAGAGCGCGAGCCCCAGCGCGGCGCGCACCUCAGACAGCCCGGUCCCCAACAGAGGAUUGAGCAUCA
# B17: chr17:62498654:62498655:-_ENSG00000108654_ENST00000581693|hu_hu|FALSE|FALSE (ssRNA)
# RNA: GGGAGUUCUACAGUCCGACGAUCUUGGUUUCCACAAAAACAAUGGUUUUAUUCUCCUUCUCACUCAUGAUCUCUUCCAUUAGACGAAUAAGUUUUUCAUCCUUUUCUACGUCAUGACACACAUCCACAAUCUGAAGAAUGUUGCAACAGAGGAUUGAGCAUCA
# B18: chr5:138118867:138118868:+_ENSG00000044115_ENST00000302763|hu_hu|motif|central (ssRNA)
# RNA: GGGAGUUCUACAGUCCGACGAUCAGCCAAAACAUGGGCCUUCUUAGAACGACCUCUCUUCUUAUUAGAGGGCCCUUUACGGUUGGUGUUUACAAGGGUUGUAACCUGUGUAACAAGAGGCUCCAACAGUCUCUCAACUGCCAGCAACAGAGGAUUGAGCAUCA
# B19: chrX:102931482:102931483:-_ENSG00000123562_ENST00000441076|hu_mus|FALSE|FALSE (ssRNA)
# RNA: GGGAGUUCUACAGUCCGACGAUCAAUGGCAUCGACAUUCUUUUUAGCAGGGAGCUGGAACAACUGCUUCUGCCUCGUAACCAAGUCCCAGUCCUCCACCAGCCACGGUUUUAAUUCUUCAGGGAUCUUCACCUUCACCUCCAUCAACAGAGGAUUGAGCAUCA
# B20: chr16:47694578:47694579:+_ENSG00000102893_ENST00000566044|hu_mus|FALSE|FALSE (ssRNA)
# RNA: GGGAGUUCUACAGUCCGACGAUCCUCAGGAGCAUCUGCGGUACUGCUCUGCCGUUUGACUUUUGAAUGCUUAGGAAAUUCUAGUUCUUCAAAGCUCUUAAAUUCUGGAAGCUUUUCUGUGUCACUAAUUCGUAGAAAGUCAAGCAACAGAGGAUUGAGCAUCA
# B21: chr1:220312391:220312392:+_ENSG00000067704_ENST00000302637|hu_hu|FALSE|FALSE (ssRNA)
# RNA: GGGAGUUCUACAGUCCGACGAUCAUCUGUUUCUGGGUUGAAAUCAGCCACAUUUCCCAAAAGAAAGCGAAGUGUAUUCCUAAGCUUGCUAAUAUCAUCUCUGGCAGCAUUGAGCACGGAUGGGCCAAUUGCAACUUCGGUGAACAACAGAGGAUUGAGCAUCA
# B22: chr7:140404665:140404666:+_ENSG00000090266_ENST00000247866|hu_hu|hu_hu_hu_mus_False|38_108 (ssRNA)
# RNA: GGGAGUUCUACAGUCCGACGAUCUGCGUACAGAGUGCCAGAGAGUUUACAGUGUCAGUCCUCGUCAUCAGGAGGGAUUCCCAGUUCUUCAUCUGUCCACUGGGAAGGAUCUGGAUAUGAAAAGUGACCCAGCACAGCAUCCGACAACAGAGGAUUGAGCAUCA
# Target: T1, UNK ZnF1-3 (human, UniProt Q9C0B0 31-174)
# T1 sequence: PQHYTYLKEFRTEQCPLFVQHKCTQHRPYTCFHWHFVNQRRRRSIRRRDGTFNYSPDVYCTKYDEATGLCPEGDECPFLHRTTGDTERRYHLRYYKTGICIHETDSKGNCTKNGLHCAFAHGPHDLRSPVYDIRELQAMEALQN
# Assay: nsRBNS (natural sequence RNA bind-n-seq); RBNS binding buffer (assumed for nsRBNS): 25 mM Tris pH 7.5, 150 mM KCl, 3 mM MgCl2, 0.01% Triton X-100, 500 ug/ml BSA, 20 U/ml SUPERase-In, 4 C; UNK is unkempt and MSI1 is Musashi-1; names of the RNAs are library labels; protein concentration not given here; high values mean tight binding
row,Binder,binding signal [enrichment R]
1,B1,0.948
2,B2,0.923
3,B3,0.413
4,B4,1.33
5,B5,0.964
6,B6,2.62
7,B7,1.27
8,B8,1.1
9,B9,0.608
10,B10,0.866
11,B11,1.44
12,B12,0.556
13,B13,0.59
14,B14,2.29
15,B15,0.496
16,B16,0.693
17,B17,0.527
18,B18,0.85
19,B19,1.46
20,B20,0.999
21,B21,0.984
22,B22,1.45

# Source: paper PMC12136788
